Experimental data from PubChem BioAssay AID2147 (National Center for Advancing Translational Sciences (NCATS), 2009).
Out of some 230,000 compounds screened, about 3,600 (1.6%) were called active. This list was built around the results that the source calls inconclusive (neither active nor inactive); the mix of calls is not that of the screen. The call rests on the fitted dose curve; in most records, active means well fitted inhibition curve with a large enough effect (not every such curve was filed as active); inconclusive means small, poorly fitted or top-dose-only effect, or another doubt; inactive means no such curve, though single readings can be large or run the other way. Potencies beside an inconclusive call are fits to weak or partial responses and may not hold up.

molecular target: Lysine-specific demethylase 4E (Homo sapiens) (UniProt B2RXH2); assay: qHTS Assay for Inhibitors of Human Jumonji Domain Containing 2E (JMJD2E); details: JMJD2E catalytic domain, FDH-coupled NADH fluorescence (FDH is formaldehyde dehydrogenase); series mostly up to 57.1 µM; activity change, negative = inhibition: at the top concentration
UniProt B2RXH2, sequence (B2RXH2 whole entry, looked up, the tested form may be a part): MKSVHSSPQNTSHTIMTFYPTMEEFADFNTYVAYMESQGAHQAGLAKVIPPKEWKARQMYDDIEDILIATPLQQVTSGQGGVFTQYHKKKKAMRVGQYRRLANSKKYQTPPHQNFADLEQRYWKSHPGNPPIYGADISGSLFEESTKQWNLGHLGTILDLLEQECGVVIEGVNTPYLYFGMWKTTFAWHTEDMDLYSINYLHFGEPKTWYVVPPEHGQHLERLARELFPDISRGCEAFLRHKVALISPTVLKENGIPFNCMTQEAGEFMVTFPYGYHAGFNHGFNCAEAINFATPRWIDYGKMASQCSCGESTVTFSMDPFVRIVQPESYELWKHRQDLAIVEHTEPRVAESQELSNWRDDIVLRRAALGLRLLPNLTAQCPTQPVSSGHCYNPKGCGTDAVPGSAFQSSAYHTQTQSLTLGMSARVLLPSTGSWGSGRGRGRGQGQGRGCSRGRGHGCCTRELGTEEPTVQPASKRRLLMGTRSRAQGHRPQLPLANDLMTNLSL
Further: nearly all actives have a fitted effect of over 50% in size.
Potency means the concentration at half of the fitted maximal effect; tags describe the fitted curve by direction and shape.
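Wherever activity change, negative = inhibition is given: 0% = wells with enzyme and -100% = buffer wells without enzyme.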

| Compound | activity change, negative = inhibition | Potency |
| --- | --- | --- |
| O=C(O)Cn1cc(/C=C2\SC(=O)N(c3ccccc3)C2=O)c2ccccc21 | inactive: 1.9% |  |
| Cc1ccc(NC(=S)Nn2cnnc2)cc1 | inactive: -24.1% |  |
| Cc1ccc(-n2[nH]c(C)c(/C=N/NC(=O)c3cccc([N+](=O)[O-])c3)c2=O)cc1C |  | inconclusive: 25.1 µM [inhibitor, single point] |
| COc1ccc(C(c2c(O)ccc3ccccc23)N2CCOCC2)c(OC)c1 (stereo unspecified) |  | inconclusive: 39.8 µM [inhibitor, single point] |
| CCOC(=O)N1CCN(C(=O)c2ccc3nc(N4CCCCC4)sc3c2)CC1 |  | inconclusive: 39.8 µM [inhibitor, single point] |
| CCc1c(C)sc(NC(=O)/C=C/C(=O)O)c1C(N)=O |  | inconclusive: 31.6 µM [inhibitor, single point] |
| COC(=O)c1ccccc1NC(=O)CN(C)S(=O)(=O)c1ccc(OC)cc1 |  | inconclusive: 39.8 µM [inhibitor, single point] |
| Cn1nc(-c2ccccc2)c(C(=O)Nc2ccc(C(F)(F)F)cc2)c1Cl | inactive: -1.37% |  |
| O=C(NCc1ccccn1)c1cc(-c2ccc(Cl)cc2)nc2ccccc12 |  | inconclusive: 31.6 µM [inhibitor, partial curve] |
| O=C(Cc1c(O)c2ccccc2[nH]c1=O)NCc1cccc(F)c1 |  | inconclusive: 25.1 µM [inhibitor, partial curve] |
| COc1cc(NC(=O)c2ccccc2)c(OC)cc1NC(=O)CN1CCN(c2ccccn2)CC1 | inactive: -24.7% |  |
| CNC(=O)c1cc2c(=O)n3cc(C)ccc3nc2n(Cc2ccco2)c1=N |  | inconclusive: 28.2 µM [inhibitor, partial curve] |
| CCOC(=O)c1sc(N/N=C/c2ccccc2)nc1C |  | inconclusive: 35.5 µM [inhibitor, single point] |
| COc1cc(C(=O)OCC(=O)Nc2sccc2C(N)=O)cc(OC)c1OC |  | inconclusive: 39.8 µM [inhibitor, single point] |
| O=[N+]([O-])c1cc(C(F)(F)F)ccc1NCCNC(=S)Nc1ccc(Cl)cc1 | inactive: -3.51% |  |
| COc1cc2c(cc1/C=C1/NC(=O)N(CC(=O)Nc3ccccc3)C1=O)OCO2 | inactive: 21% |  |
| COc1ccc(C2=NN(C(=O)c3cccs3)C(c3ccc(OC)cc3)C2)cc1 (stereo unspecified) |  | inconclusive: 35.5 µM [inhibitor, single point] |
| N#Cc1c(-c2ccccc2)nc(SCC(=O)Nc2ccccc2F)[nH]c1=O | inactive: -0.329% |  |
| O=C(N/N=C/c1ccc(-c2ccccc2[N+](=O)[O-])o1)c1cncc(Br)c1 | inactive: -16.7% |  |
| O=C(CN1C(=O)C(=O)c2ccccc21)OCN1C(=O)c2ccccc2C1=O | inactive: -2.62% |  |
| C=CCOC(=O)C1=C(C)NC(SCC(N)=O)=C(C#N)C1c1cccs1 (stereo unspecified) |  | inconclusive: 39.8 µM [inhibitor, single point] |
| CCCC(=O)NCc1ccc2c(c1)cc(C)n2C |  | inconclusive: 31.6 µM [inhibitor, single point] |
| CN(C)c1ccc(CC2C(=O)Nc3ccccc32)cc1 (stereo unspecified) |  | active: 3.16 µM |
| COC(=O)C1=C(C)N(Cc2ccco2)C(=O)/C1=C\c1ccc([N+](=O)[O-])cc1 |  | inconclusive: 6.31 µM [inhibitor, single point] |

| Compound | activity change, negative = inhibition | Potency |
| --- | --- | --- |
| Clc1ccc2nc(SCc3nnc(-c4ccccc4)o3)[nH]c2c1 | inactive: -4.61% |  |
| Cc1ccc(S(=O)(=O)NN2C(=O)c3ccccc3NC2c2ccccn2)cc1 (stereo unspecified) |  | inconclusive: 31.6 µM [inhibitor, partial curve] |
| COc1c(O)c(O)cc2c1oc1c3ccccc3oc(=O)c21 |  | active: 15.8 µM |
| CCN(CC)S(=O)(=O)c1ccc(OC)c(NC(=O)COc2ccc3c(C)cc(=O)oc3c2)c1 |  | inconclusive: 28.2 µM [inhibitor, partial curve] |
| CCn1c(O)c(/C=N/NC(=O)c2ccncc2)c(=O)n(CC)c1=S | inactive: 13.4% |  |
| CCOC1=C/C(=C/c2c(N)n3oc(C)cc3nc2=O)C=CC1=O | inactive: -15.4% |  |
| NS(=O)(=O)c1ccc(-c2ccc(/C=N/Nc3ccc(C(=O)O)cc3)o2)cc1 |  | inconclusive: 28.2 µM [inhibitor, partial curve] |
| CCOC(=O)c1oc2c(C)c(O)ccc2c(=O)c1-c1nncn1-c1ccccc1 | inactive: -6.5% |  |
| COC(=O)c1c(C)n(-c2ccc(C)cc2)c2ccc(O)cc12 |  | inconclusive: 39.8 µM [inhibitor, single point] |
| Cc1cccc(C)c1Nc1nnc(SCc2cc([N+](=O)[O-])cc3c2OCOC3)s1 | inactive: -7.85% |  |
| Cc1cc(C)n2ncc(C(=O)NCCc3ccccc3)c2n1 |  | inconclusive: 28.2 µM [inhibitor, partial curve] |
| COc1ccc(C2=CC(c3ccc(OC)c(OC)c3)NC(=S)N2)cc1 (stereo unspecified) |  | inconclusive: 39.8 µM [inhibitor, single point] |
| CC(=O)c1ccc(NC(=O)c2cnn3ccccc23)cc1 | inactive: -29.4% |  |
| CO/N=C1\CN(c2nc3c(cc2F)c(=O)c(C(=O)O)cn3C2CC2)CC1CN (stereo unspecified) |  | inconclusive: 31.6 µM [inhibitor, single point] |
| O=[N+]([O-])c1ccc(CSc2nnc3ccccn23)cc1 | inactive: -0.266% |  |
| Cc1nc2ccccn2c1/C(O)=C1\C(=O)C(=O)N(CCN2CCOCC2)C1c1ccncc1 (stereo unspecified) |  | inconclusive: 35.5 µM [inhibitor, single point] |
| Cc1cccc2cc(C(c3nnnn3Cc3ccc4c(c3)OCO4)N3CCCC3)c(=O)[nH]c12 (stereo unspecified) |  | inconclusive: 39.8 µM [inhibitor, single point] |
| CC(C)=NNC1=NC(C)(C)Cc2ccccc21 |  | inconclusive: 31.6 µM [inhibitor, single point] |
| CCN(CC)S(=O)(=O)c1cccc(-c2n[nH]c(=S)n2/N=C/c2ccc(C(=O)OC)cc2)c1 |  | inconclusive: 14.1 µM [inhibitor, partial curve] |
| COC(=O)C1=C(C)NC(C)=C(C(=O)OC)C1c1ccc(C)o1 |  | inconclusive: 31.6 µM [inhibitor, single point] |
| COc1cc(O)cc2occ(-c3ccc(O)cc3)c(=O)c12 |  | inconclusive: 39.8 µM [inhibitor, single point] |
| Cn1c(=N)c(S(=O)(=O)c2ccc(F)cc2)cc2c(=O)n3ccccc3nc21 |  | inconclusive: 3.98 µM [inhibitor, full curve] |
| O=C(Nc1cccc2cccnc12)c1ccc(Br)o1 | inactive: -4.08% |  |
| O=C(CCSc1nnc2ccccn12)Nc1ccc(F)cc1 |  | inconclusive: 25.1 µM [inhibitor, partial curve] |

| Compound | activity change, negative = inhibition | Potency |
| --- | --- | --- |
| COc1ccccc1CNC(=O)COC(=O)c1cccnc1SCC(=O)NCc1ccccc1OC |  | inconclusive: 14.1 µM [inhibitor, partial curve, poor fit] |
| Cc1c(O)c(CN2CCCC2)cc2c3c(c(=O)oc12)CCC3 |  | inconclusive: 28.2 µM [inhibitor, partial curve] |
| COC(=O)CCC(=O)OC1(C)C(=O)C2=CN(CCCOC(C)C)C(c3ccc(OC)cc3)=CC2=C(Br)C1=O (stereo unspecified) |  | active: 4.47 µM |
| N#Cc1c2c(c(Nc3ccccc3)n3c1nc1ccccc13)CCC2 |  | inconclusive: 39.8 µM [inhibitor, single point] |
| Cc1ccc(/C=N/NC(=O)C2=NNC(c3ccccc3)(c3ccccc3)C2)c(O)c1 |  | active: 10 µM |
| CCSc1nc2c([nH]c3ccccc32)c(=O)n1C |  | inconclusive: 8.91 µM [inhibitor, full curve, poor fit] |
| Cc1[nH]c2ccccc2c1[C@H]1[C@@H](CC#N)C1(C)C | inactive: -3.7% |  |
| Nc1c(C(=O)Nc2ccccc2)c2nc3ccccc3nc2n1CCCN1CCOCC1 |  | inconclusive: 25.1 µM [inhibitor, partial curve] |
| Cc1ccc(NC(=O)C2CCCN(c3ncccn3)C2)cc1F (stereo unspecified) |  | inconclusive: 28.2 µM [inhibitor, single point] |
| Cc1cc(NC(=O)c2ccccc2F)n(-c2nc3ccccc3[nH]2)n1 |  | inconclusive: 35.5 µM [inhibitor, single point] |
| O=C(CCN1CCc2ccccc2C1)Nc1ccccc1 |  | inconclusive: 20 µM [inhibitor, single point] |
| CCOc1ccccc1NC(=O)c1ccc(S(=O)(=O)N(C)C)cc1 | inactive: -1.51% |  |
| CCOc1ccc2[nH]c(C)c(CN3CCOCC3)c(=O)c2c1 |  | inconclusive: 35.5 µM [inhibitor, partial curve] |
| COc1ccc(C(C)n2c(C)c3c(C)nnc(C)c3c2C)cc1 (stereo unspecified) |  | inconclusive: 35.5 µM [inhibitor, partial curve] |
| COCc1nnc(NC(=O)c2cc(Cl)ccc2OC)s1 |  | inconclusive: 39.8 µM [inhibitor, single point] |
| Cc1nnc(SCc2ccccc2F)n1NCc1cccs1 | inactive: 7.98% |  |
| Cc1nn(-c2ccccc2)c2sc(C(=O)n3cccn3)cc12 |  | inconclusive: 2 µM [inhibitor, partial curve] |
| CN1CCCN(Cc2nc(-c3ccc(Cl)cc3)no2)CC1 |  | inconclusive: 6.31 µM [inhibitor, single point] |
| CC(C(=O)Nc1ccccc1-c1ccccc1)N1CCN(C(=O)c2ccccc2)CC1 (stereo unspecified) | inactive: 0.183% |  |
| N#Cc1c(-c2cccs2)cc(C2CC2)nc1SCC(N)=O |  | inconclusive: 31.6 µM [inhibitor, single point] |
| Cc1ccc(C)c(NC(=O)c2cnc3n(c2=O)CCS3)c1 |  | inconclusive: 35.5 µM [inhibitor, single point] |
| O=[N+]([O-])c1ccc(O)c(/C=N/Nc2ccc(Cl)nn2)c1 |  | active: 5.62 µM |
| Nc1c(C(=O)Nc2ccccc2F)sc2nc(-c3ccco3)ccc12 |  | inconclusive: 3.55 µM [inhibitor, full curve] |
